In publication PMC3846719:
Results are given in words; binding and its absence hold for the method and conditions named. Binding seen in cells or lysates may run through a third protein. Some binding calls cover weakened binding; strength is not graded here.

The chains behind the UniProt entries cited, without tags or fusion partners.
UniProt Q03308: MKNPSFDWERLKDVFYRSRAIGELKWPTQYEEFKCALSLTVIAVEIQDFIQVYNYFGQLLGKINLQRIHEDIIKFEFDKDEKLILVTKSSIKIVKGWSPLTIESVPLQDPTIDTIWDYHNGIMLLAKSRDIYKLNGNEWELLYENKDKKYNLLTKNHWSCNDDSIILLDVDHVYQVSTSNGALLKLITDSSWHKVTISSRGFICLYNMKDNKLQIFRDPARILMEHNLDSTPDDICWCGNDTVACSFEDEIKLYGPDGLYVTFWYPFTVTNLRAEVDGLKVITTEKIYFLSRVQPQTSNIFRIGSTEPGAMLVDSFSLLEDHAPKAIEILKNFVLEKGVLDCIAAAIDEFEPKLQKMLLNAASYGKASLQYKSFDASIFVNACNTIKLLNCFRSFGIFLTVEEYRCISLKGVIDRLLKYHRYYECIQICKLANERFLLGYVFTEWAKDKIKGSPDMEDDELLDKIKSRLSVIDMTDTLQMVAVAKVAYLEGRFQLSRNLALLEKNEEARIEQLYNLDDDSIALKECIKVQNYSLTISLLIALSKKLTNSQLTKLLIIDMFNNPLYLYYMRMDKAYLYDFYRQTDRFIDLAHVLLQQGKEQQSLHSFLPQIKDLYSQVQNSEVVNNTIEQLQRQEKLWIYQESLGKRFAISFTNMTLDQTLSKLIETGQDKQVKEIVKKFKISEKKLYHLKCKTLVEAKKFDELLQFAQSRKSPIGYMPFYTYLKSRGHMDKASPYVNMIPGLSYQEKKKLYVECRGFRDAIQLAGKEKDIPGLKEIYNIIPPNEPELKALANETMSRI
UniProt Q07468: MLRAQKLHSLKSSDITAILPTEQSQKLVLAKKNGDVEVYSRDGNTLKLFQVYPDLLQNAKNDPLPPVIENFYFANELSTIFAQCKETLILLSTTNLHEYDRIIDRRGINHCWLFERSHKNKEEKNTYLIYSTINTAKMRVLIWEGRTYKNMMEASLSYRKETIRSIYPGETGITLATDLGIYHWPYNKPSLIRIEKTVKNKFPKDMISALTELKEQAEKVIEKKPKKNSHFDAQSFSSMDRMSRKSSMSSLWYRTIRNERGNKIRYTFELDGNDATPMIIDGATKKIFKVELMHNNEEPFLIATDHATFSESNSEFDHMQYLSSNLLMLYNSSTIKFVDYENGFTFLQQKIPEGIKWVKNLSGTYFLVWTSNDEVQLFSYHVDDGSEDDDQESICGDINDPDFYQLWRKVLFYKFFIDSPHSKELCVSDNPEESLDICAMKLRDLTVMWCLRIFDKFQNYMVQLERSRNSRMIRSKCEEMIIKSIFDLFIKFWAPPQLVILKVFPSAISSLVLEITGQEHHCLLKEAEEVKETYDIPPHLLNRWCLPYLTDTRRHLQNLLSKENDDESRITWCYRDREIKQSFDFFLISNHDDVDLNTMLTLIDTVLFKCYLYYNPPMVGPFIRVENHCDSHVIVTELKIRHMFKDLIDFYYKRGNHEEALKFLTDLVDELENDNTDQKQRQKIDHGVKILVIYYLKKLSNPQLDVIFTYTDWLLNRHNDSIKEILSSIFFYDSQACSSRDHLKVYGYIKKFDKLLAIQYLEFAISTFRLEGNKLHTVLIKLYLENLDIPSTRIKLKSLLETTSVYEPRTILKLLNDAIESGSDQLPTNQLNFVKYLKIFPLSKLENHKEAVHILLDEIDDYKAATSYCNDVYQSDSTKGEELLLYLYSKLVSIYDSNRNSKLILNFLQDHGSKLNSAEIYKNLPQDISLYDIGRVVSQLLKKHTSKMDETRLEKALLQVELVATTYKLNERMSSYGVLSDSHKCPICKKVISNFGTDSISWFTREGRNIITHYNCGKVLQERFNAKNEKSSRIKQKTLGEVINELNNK

T1: Vps11 (S. cerevisiae), P12868
T1 chain: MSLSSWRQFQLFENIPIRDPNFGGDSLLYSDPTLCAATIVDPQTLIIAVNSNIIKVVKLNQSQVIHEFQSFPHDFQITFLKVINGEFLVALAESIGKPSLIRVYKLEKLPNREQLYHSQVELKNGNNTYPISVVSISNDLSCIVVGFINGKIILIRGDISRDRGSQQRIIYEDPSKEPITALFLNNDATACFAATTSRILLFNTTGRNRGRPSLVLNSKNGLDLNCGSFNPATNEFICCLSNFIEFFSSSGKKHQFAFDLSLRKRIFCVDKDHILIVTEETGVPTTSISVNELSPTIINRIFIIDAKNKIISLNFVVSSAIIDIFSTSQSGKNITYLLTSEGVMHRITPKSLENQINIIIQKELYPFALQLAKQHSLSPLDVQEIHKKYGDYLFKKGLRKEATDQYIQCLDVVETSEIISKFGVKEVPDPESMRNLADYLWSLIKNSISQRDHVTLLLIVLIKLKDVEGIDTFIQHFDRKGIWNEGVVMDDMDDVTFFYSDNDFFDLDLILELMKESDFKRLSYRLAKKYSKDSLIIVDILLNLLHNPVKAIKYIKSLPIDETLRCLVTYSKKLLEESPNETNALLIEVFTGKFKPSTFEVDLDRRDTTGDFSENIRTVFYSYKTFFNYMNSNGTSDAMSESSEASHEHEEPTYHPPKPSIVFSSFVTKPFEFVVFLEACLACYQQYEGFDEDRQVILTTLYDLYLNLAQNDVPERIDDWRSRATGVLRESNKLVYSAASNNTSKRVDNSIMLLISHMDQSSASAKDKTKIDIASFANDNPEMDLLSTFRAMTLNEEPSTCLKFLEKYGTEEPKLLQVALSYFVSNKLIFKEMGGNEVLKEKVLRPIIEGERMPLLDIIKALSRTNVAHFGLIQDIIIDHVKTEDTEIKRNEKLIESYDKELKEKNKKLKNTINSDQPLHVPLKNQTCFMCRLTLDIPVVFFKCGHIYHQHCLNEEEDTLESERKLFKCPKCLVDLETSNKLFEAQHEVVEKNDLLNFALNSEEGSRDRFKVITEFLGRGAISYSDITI

T2: Vps3 (S. cerevisiae), P23643
T2 chain: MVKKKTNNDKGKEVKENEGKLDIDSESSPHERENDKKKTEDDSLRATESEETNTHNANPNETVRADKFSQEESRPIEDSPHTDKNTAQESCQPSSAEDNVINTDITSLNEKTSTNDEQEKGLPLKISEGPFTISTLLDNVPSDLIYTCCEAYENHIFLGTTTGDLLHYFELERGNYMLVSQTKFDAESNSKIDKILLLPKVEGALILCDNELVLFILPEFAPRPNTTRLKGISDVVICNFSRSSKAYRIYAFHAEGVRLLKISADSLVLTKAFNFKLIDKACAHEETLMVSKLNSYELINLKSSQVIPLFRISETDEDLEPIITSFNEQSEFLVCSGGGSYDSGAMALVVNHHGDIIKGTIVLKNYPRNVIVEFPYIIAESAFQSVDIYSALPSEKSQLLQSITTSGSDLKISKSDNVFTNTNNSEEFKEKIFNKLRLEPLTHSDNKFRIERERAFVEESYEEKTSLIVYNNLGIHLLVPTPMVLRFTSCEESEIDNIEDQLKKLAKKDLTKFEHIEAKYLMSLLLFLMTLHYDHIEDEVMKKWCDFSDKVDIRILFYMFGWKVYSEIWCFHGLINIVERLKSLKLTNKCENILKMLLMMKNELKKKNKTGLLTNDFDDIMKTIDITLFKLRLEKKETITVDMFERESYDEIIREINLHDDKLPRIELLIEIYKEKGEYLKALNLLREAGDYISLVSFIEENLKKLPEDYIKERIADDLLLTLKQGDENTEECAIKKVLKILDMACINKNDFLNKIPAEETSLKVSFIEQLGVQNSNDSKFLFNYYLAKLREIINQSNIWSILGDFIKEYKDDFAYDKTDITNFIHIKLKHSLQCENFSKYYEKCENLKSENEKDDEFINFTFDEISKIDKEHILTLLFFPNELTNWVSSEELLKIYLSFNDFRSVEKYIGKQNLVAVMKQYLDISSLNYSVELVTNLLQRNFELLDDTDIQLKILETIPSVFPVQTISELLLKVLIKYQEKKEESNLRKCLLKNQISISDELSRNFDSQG

T3: Vps8 (S. cerevisiae), P39702
T3 chain: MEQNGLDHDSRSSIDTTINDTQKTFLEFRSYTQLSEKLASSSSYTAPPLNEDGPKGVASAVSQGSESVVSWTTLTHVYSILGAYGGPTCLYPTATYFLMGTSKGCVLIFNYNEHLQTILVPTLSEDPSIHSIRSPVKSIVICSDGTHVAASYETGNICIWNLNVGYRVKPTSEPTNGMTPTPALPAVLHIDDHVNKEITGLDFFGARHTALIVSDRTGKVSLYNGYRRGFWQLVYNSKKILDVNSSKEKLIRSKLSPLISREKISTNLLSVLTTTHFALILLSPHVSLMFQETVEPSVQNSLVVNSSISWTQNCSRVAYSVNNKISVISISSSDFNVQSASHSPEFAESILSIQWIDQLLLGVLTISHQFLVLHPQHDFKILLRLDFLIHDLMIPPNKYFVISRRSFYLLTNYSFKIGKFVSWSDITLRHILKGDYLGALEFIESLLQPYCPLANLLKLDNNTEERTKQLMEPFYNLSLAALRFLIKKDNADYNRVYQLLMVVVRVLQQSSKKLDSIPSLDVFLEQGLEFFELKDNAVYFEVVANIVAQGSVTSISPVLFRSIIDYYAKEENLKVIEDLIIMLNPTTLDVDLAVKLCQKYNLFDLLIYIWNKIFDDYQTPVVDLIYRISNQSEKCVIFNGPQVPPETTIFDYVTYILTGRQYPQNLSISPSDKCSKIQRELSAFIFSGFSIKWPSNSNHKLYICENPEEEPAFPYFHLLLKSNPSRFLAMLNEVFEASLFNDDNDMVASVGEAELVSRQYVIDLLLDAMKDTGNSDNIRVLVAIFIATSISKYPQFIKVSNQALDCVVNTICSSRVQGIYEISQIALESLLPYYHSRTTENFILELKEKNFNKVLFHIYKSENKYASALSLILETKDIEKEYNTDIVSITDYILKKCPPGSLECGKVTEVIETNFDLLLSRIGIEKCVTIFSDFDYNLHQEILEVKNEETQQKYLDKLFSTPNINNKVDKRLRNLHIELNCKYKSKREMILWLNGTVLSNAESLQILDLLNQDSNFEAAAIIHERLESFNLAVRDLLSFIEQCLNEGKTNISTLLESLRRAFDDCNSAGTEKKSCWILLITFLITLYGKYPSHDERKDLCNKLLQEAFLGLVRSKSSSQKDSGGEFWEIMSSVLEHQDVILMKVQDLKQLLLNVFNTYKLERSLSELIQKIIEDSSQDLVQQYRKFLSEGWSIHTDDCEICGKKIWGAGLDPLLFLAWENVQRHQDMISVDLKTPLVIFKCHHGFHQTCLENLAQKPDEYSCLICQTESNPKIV

B1: Vps33, P20795 1-691 (protein)
chain: MNRFWNTKKFSLTNADGLCATLNEISQNDEVLVVQPSVLPVLNSLLTFQDLTQSTPVRKITLLDDQLSDDLPSALGSVPQMDLIFLIDVRTSLRLPPQLLDAAQKHNLSSLHIIYCRWKPSFQNTLEDTEQWQKDGFDLNSKKTHFPNVIESQLKELSNEYTLYPWDLLPFPQIDENVLLTHSLYNMENVNMYYPNLRSLQSATESILVDDMVNSLQSLIFETNSIITNVVSIGNLSKRCSHLLKKRIDEHQTENDLFIKGTLYGERTNCGLEMDLIILERNTDPITPLLTQLTYAGILDDLYEFNSGIKIKEKDMNFNYKEDKIWNDLKFLNFGSIGPQLNKLAKELQTQYDTRHKAESVHEIKEFVDSLGSLQQRQAFLKNHTTLSSDVLKVVETEEYGSFNKILELELEILMGNTLNNDIEDIILELQYQYEVDQKKILRLICLLSLCKNSLREKDYEYLRTFMIDSWGIEKCFQLESLAELGFFTSKTGKTDLHITTSKSTRLQKEYRYISQWFNTVPIEDEHAADKITNENDDFSEATFAYSGVVPLTMRLVQMLYDRSILFHNYSSQQPFILSREPRVSQTEDLIEQLYGDSHAIEESIWVPGTITKKINASIKSNNRRSIDGSNGTFHAAEDIALVVFLGGVTMGEIAIMKHLQKILGKKGINKRFIIIADGLINGTRIMNSIS
modifications: here or on the partner: BODIPY-labelled lysines (BODIPY-Lys-tRNA in the translation); BODIPY-labelled lysines (BODIPY-Lys-tRNA in the translation)

Columns and labels:
Vps16 (S. cerevisiae) [1] = target: Vps16 (S. cerevisiae) (UniProt Q03308); assay: pull-down; one EGFP-tagged bait subunit and one untagged prey subunit co-translated (10 nM plasmids, 100 µl LTE, 27 °C, 2.5 h) with BODIPY-Lys-tRNA; GFP-Cap (anti-GFP) beads 15 min; washed with 50 mM NaHPO4 pH 8, 300 mM NaCl, 0.1% Triton; SDS-PAGE, fluorescence scan
Vps39 (S. cerevisiae) = Vps39 (S. cerevisiae) (UniProt Q07468); assay: as above
Vps16 (S. cerevisiae) [2] = target: Vps16 (S. cerevisiae) (UniProt Q03308); assay: pull-down; three or four subunits co-translated in LTE (20 nM plasmid mixture in all), one of them GFP-tagged; subcomplex isolated on the anti-GFP matrix; SDS-PAGE, fluorescence scan
[3] = target: T1, Vps11 (S. cerevisiae), P12868; assay: pull-down; one EGFP-tagged bait subunit and one untagged prey subunit co-translated (10 nM plasmids, 100 µl LTE, 27 °C, 2.5 h) with BODIPY-Lys-tRNA; GFP-Cap (anti-GFP) beads 15 min; washed with 50 mM NaHPO4 pH 8, 300 mM NaCl, 0.1% Triton; SDS-PAGE, fluorescence scan; details: remark: other sources report otherwise
[4] = target: T2, Vps3 (S. cerevisiae), P23643; assay: as above; details: remark: other sources report otherwise
[5] = target: T3, Vps8 (S. cerevisiae), P39702; assay: as above; details: remark: other sources report otherwise

binding (Vps16 (S. cerevisiae) [1])	binding (Vps39 (S. cerevisiae))	binding (Vps16 (S. cerevisiae) [2])	binding [3]	binding [4]	binding [5]	Molecule
binds	no binding	binds				Vps33 (from UniProt P20795 1-691)
			no binding	no binding	no binding	B1
